Numbering of substitutions follows the chain as printed. Names and notes keep the numbering of the source. ± gives the standard deviation of the averaged measurements. Laboratory Escherichia coli strains with one amino-acid change in an essential protein, pooled on minimal glucose agar with carbenicillin or gentamicin at twice the control MIC (plus kanamycin and chloramphenicol for the plasmids), 48 h. Fold change of barcode share against drug-free plates; higher = less susceptible. Active = above 20 in both replicates (the paper's putatively resistant). '<' = one read or none on drug, '>' = one read or none on a drug-free plate. Shares are relative, so most strains fall below 1 when a few take over. Listed are strains with at least 15 reads on both drug-free plates, and hits; most hits rest on fewer reference reads. Replicate rank correlation about 0.5. Edits are read from barcodes.
B1: glmS V96A (protein)
chain: MCGIVGAIAQRDVAEILLEGLRRLEYRGYDSAGLAVVDAEGHMTRLRRLGKVQMLAQAAEEHPLHGGTGIAHTRWATHGEPSEVNAHPHVSEHIVAVHNGIIENHEPLREELKARGYTFVSETDTEVIAHLVNWELKQGGTLREAVLRAIPQLRGAYGTVIMDSRHPDTLLAARSGSPLVIGLGMGENFIASDQLALLPVTRRFIFLEEGDIAEITRRSVNIFDKTGAEVKRQDIESNLQYDAGDKGIYRHYMQKEIYEQPNAIKNTLTGRISHGQVDLSELGPNADELLSKVEHIQILACGTSYNSGMVSRYWFESLAGIPCDVEIASEFRYRKSAVRRNSLMITLSQSGETADTLAGLRLSKELGYLGSLAICNVPGSSLVRESDLALMTNAGTEIGVASTKAFTTQLTVLLMLVAKLSRLKGLDASIEHDIVHGLQALPSRIEQMLSQDKRIEALAEDFSDKHHALFLGRGDQYPIALEGALKLKEISYIHAEAYAAGELKHGPLALIDADMPVIVVAPNNELLEKLKSNIEEVRARGGQLYVFADQDAGFVSSDNMHIIEMPHVEEVIAPIFYTVPLQLLAYHVALIKGTDVDQPRNLAKSVTVE
B2: glmS V96P (protein)
chain: B1 chain with A96P
B3: glmS V96Q (protein)
chain: B1 chain with A96Q
B4: glmS V96D (protein)
chain: B1 chain with A96D
B5: gapA V17Q (protein)
chain: MTIKVGINGFGRIGRIQFRAAQKRSDIEIVAINDLLDADYMAYMLKYDSTHGRFDGTVEVKDGHLIVNGKKIRVTAERDPANLKWDEVGVDVVAEATGLFLTDETARKHITAGAKKVVMTGPSKDNTPMFVKGANFDKYAGQDIVSNASCTTNCLAPLAKVINDNFGIIEGLMTTVHATTATQKTVDGPSHKDWRGGRGASQNIIPSSTGAAKAVGKVLPELNGKLTGMAFRVPTPNVSVVDLTVRLEKAATYEQIKAAVKAAAEGEMKGVLGYTEDDVVSTDFNGEVCTSVFDAKAGIALNDNFVKLVSWYDNETGYSNKVLDLIAHISK
B6: gapA F18W (protein)
chain: B5 chain with Q17V, F18W
B7: gapA F18A (protein)
chain: B5 chain with Q17V, F18A
B8: gapA L155A (protein)
chain: B5 chain with Q17V, L155A
B9: argC V76Q (protein)
chain: MLNTLIVGASGYAGAELVTYVNRHPHMNITALTVSAQSNDAGKLISDLHPQLKGIVDLPLQPMSDISEFSPGVDVQFLATAHEVSHDLAPQFLEAGCVVFDLSGAFRVNDATFYEKYYGFTHQYPELLEQAAYGLAEWCGNKLKEANLIAVPGCYPTAAQLALKPLIDADLLDLNQWPVINATSGVSGAGRKAAISNSFCEVSLQPYGVFTHRHQPEIATHLGADVIFTPHLGNFPRGILETITCRLKSGVTQAQVAQVLQQAYAHKPLVRLYDKGVPALKNVVGLPFCDIGFAVQGEHLIIVATEDNLLKGAAAQAVQCANIRFGYAETQSLI
B10: argC I302Q (protein)
chain: B9 chain with Q76V, I302Q
B11: argC I302A (protein)
chain: B9 chain with Q76V, I302A

Molecular target: Escherichia coli (laboratory strain)
Experiment: barcode share on antibiotic plates over drug-free plates; higher = less susceptible
Settings: antibiotic: carbenicillin; 2× MIC (3.1 µg/mL)
Description: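 A pool of E. coli strains, each edited to carry one amino-acid change in an essential protein, was grown for 48 h on minimal glucose agar with or without antibiotic; strain barcodes were sequenced; mean of two replicates.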

| Protein | fold change of barcode share |
| --- | --- |
| B1 | 0.514 ± 0.44 |
| B2 | 0.532 ± 0.13 |
| B3 | 0.263 ± 0.083 |
| B4 | 0.263 ± 0.017 |
| B5 | 0.232 ± 0.088 |
| B6 | 1.13 ± 1.1 |
| B7 | 0.433 ± 0.3 |
| B8 | 0.94 ± 0.76 |
| B9 | 0.571 ± 0.084 |
| B10 | 0.293 ± 0.076 |
| B11 | 0.235 ± 0.012 |

Same assay, conditions: antibiotic: gentamicin; 2× MIC (MIC 0.45 µg/mL)

| Protein | fold change of barcode share |
| --- | --- |
| B1 | 0.0065 ± 0.0057 |
| B2 | 0.00458 ± 0.0015 |
| B3 | 0.00584 ± 0.0058 |
| B4 | 0.0049 ± 0.0027 |
| B5 | < 0.0107 |
| B6 | < 0.00676 |
| B7 | 0.0193 ± 0.012 |
| B8 | 0.0158 ± 0.011 |
| B9 | 0.031 ± 0.028 |
| B10 | < 0.00589 |
| B11 | < 0.00358 |

— the supplement of paper PMC11876631
